Results taken from the supplement of paper PMC3334620.
Over roughly 33,000 sequences, “E-score (-0.5 to 0.5)” has its median near -0.016; the highest 2% begin near 0.31. The list shows a part of the results.

The sequences below were run against Cst6 (UniProt P40535) (assay: PBM E-score (8-mer binding enrichment) (E-score (-0.5 to 0.5)); higher = stronger / more preferred TF binding; most listed sequences are background and not binding sites). Conditions: protein concentration: 200 nM; construct: GST-DNA-binding domain.
Outline: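 Universal all-10-mer Agilent arrays, fresh or stripped once, were converted to double-stranded form by primer extension. GST-tagged yeast transcription factors from PURExpress in vitro transcription/translation, full-length or DNA-binding domain only, were applied at about 100-200 nM and detected with fluorescent anti-GST. After masliner normalisation, the Universal PBM Analysis Suite scored each ungapped eight-base word together with its reverse complement by E-score.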

Sequence	PBM E-score
CATGTCGA	-0.0991
TAATTTGA	0.118
AAACCTTT	-0.0284
ATACGTTG	0.0931
CGCATCAC	0.183
ATCTCGCC	-0.111
TCCGGCCA	-0.271
TATAGCCA	-0.00222
CGGCGGCA	0.0574
CGGCAGTC	0.0637
CCAGTTCC	-0.194
ATAGCAAC	0.0205
AAGAGGGA	-0.27
CGACGCAA	-0.0619
TCGCCGCA	0.135
AGAGACGG	-0.0701
AGGTGTGA	0.00921
AGTCTGTC	-0.1
ACTAGTGG	-0.136
CAGGGCGG	-0.26
AACAACGA	0.0938
GCGGTCAC	0.0311
AGGTCACA	-0.0345
AATGACAA	0.267
TAGGCGAA	-0.0395

Sequence	PBM E-score
AGGACCTA	-0.131
CGCAGGCG	-0.0934
ACGAGACC	-0.15
AGCGATAG	-0.235
CCATGTTA	0.0103
CCTCGTAA	0.0951
AACTTCTA	-0.00743
TAATACCA	0.182
AGCGTCGG	-0.0566
ACAGAGAG	-0.234
CCAGTTTA	-0.0927
CCCCATTC	-0.0994
GAAACTGC	-0.152
CGAGTTCC	-0.035
TAATCATA	0.243
ATGCCACA	0.179
GGAGGTAC	-0.267
AGGAGCGG	-0.207
AAGGCCAC	-0.181
CCACCAGC	-0.0867
GCCGGGAC	-0.33
GACGCCGA	0.176
AGGGTGCG	-0.16
CGGGTCCA	-0.413
CCGCGCGG	0.382

Sequence	PBM E-score
ACAATACA	-0.00055
ACCAATAC	0.0422
TTAACAAA	0.161
CGATACAA	0.103
AGAGAGCA	-0.229
CACAAATA	0.252
GCGTCGCA	-0.0671
TCCCGCGA	-0.182
ACTTATGC	0.0183
GAGATATC	-0.0223
CGCCGTAG	0.268
CAAAACTC	0.0461
GGCGAACC	-0.0942
GCCCGCTA	-0.274
CGAATTAC	0.165
TGATGACA	0.368
AATGACCA	0.0491
CGTGCACA	-0.0622
AGTTCGAC	-0.0147
TCGGAAAA	0.113
GCTCCGCA	-0.164
ATGCATTC	0.0817
CCCTCGAA	-0.284
GCAACTTA	0.055
ACCACTAC	-0.0773

Sequence	PBM E-score
GTGCTAAA	0.0621
CATAGCCG	0.0286
CCAGGGCA	-0.228
CCCAGGAG	-0.331
ACGGGATA	0.0544
AGTACTTA	-0.0277
ATAAGGTC	0.0415
AGCCAACG	0.0194
AGCGAACT	-0.0366
GACATATC	0.184
CAGAACAA	0.256
CCTCGAGC	-0.0484
TATGAATA	0.122
AGTACCTA	0.00893
AGTTAACA	0.0861
GTAAACAC	0.148
CACTTTCA	-0.0229
GCATGACC	-0.0381
GACCGTCA	0.137
AACAGCAT	-0.0295
ATAGGGCA	-0.0627
CCATACCG	-0.00645
CGAGGCTA	-0.173
CAAGTAAC	0.0522
CAACTAAA	0.142

Sequence	PBM E-score
AACGAGTT	-0.148
CCCATTGA	0.0297
GCCATCAC	0.0711
GCACTCTA	-0.0783
ATGTATGA	0.336
AGAATACT	0.203
AACTAGTA	-0.0153
AAGTGTCC	-0.1
CAACCAGA	0.0739
AGCCTTGG	-0.0725
CCCAGAAG	-0.0853
ACGGGTAT	0.198
CAACATCG	0.0506
GGCAACTA	0.00772
ACATAGGG	-0.168
GCTTTACA	0.0567
CGGATCAG	-0.14
GATAAACA	0.0142
CTCGTTAA	-0.0443
AATTCGGA	0.0143
GGCGTCCA	-0.0758
CAACGTTG	0.31
ATCTTTGC	0.209
ACGTTTAA	0.253
GCAAACAA	0.154

Sequence	PBM E-score
AGTCAAAC	-0.0902
CTTCCACA	-0.143
AGGATTAC	0.0751
ATCGCCAC	0.13
CCTAAAAC	-0.128
TACTCATA	0.0871
ATGTTAAG	0.037
ACGAGCTA	-0.046
GAAATCCC	-0.101
GGTCTGGA	-0.228
CTTGATAC	0.15
GAGCACTC	-0.0473
GGACACCA	-0.0762
CAGGCGCC	0.109
GCCATAAC	-0.0859
AAGCGCAC	-0.171
ACGATCAG	0.0769
CTGAGCCA	-0.0491
TGAAAGCA	0.0904
AACATCTC	-0.0459
GCTCCAAC	0.0831
GTAACCTA	0.192
AAACTTTG	0.058
AACGAAAC	0.155
GGCGTCAC	0.431

Sequence	PBM E-score
GGGCCCTA	-0.352
AAAGCTGG	-0.177
GTGTCAAC	0.0573
AGAATTTG	0.00176
ATGCAACA	0.159
CACAGTCG	-0.116
AACCAGGG	-0.149
TATATCCA	0.239
GTAGGAAA	-0.0486
GCTCCGTA	0.0421
ATATATAC	0.281
AGCTCCCG	-0.415
CATTCAAA	0.178
TACCGATA	0.0472
AGGGTTGG	-0.116
CAATTTTA	0.239
AATTGTCT	0.064
GCCTCAGA	0.151
CAACCCCG	-0.231
CGAACTCC	0.0522
AACCCAGC	-0.225
GCCTATAA	-0.0984
